PubChem BioAssay AID686978 (National Center for Advancing Translational Sciences (NCATS), 2013)
Among all 420,000 compounds or so, about 64,000 (15%) were called active. Inconclusive means that the source gave no clear call. Such entries were picked first, then a sample of the others. Calls follow the shape of the dose curve; as a rule, active = well fitted inhibition curve with a large enough effect; inconclusive = small, poorly fitted or top-dose-only effect; inactive = flat fitted curve, though single readings scatter. Potencies of inconclusive entries are left out as doubtful fits.

experiment: qHTS for Inhibitors of human tyrosyl-DNA phosphodiesterase 1 (TDP1): qHTS in cells in absence of CPT; conditions: DT40 Tdp1-/- hTDP1 cells, no CPT, ATP luminescence, 48 h; activity change, negative = growth inhibition: at 46.2 µM (top of the series) unless noted; also: nearly all actives have a fitted effect of over 55% in size
Summary of the method: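 Stably hTDP1-transfected Tdp1-null chicken DT40 cells were treated with library compounds minus camptothecin and grown for at least 48 hr at 37 °C, after which cellular ATP was quantified by luminescence.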
% is scaled to controls: 0 for no effect and ±100 for the full control effect; potency is read from the fitted curve at half-maximal effect; tags tell the direction and shape of the fitted curve.

| SMILES | Potency | activity change, negative = growth inhibition |
| --- | --- | --- |
| Cc1cnc(C)c(N2CCN(Cc3cn(C)nc3-c3cccc(Cl)c3)CC2)n1 | inconclusive [inhibitor, single point] |  |
| Cc1cc(F)ccc1NC(=O)CCn1nc(C)c(S(=O)(=O)N2CCCCC2)c1C |  | inactive: -7.26% |
| COc1ccc(C(=O)NN2C(=O)C3C(c4ccccc4)C=CC(c4ccccc4)C3C2=O)cc1 (stereo unspecified) |  | inactive: -11.1% |
| O=C1COc2ccc(-c3n[nH]c(=O)c4ccccc34)cc2N1 | inconclusive [inhibitor, partial curve, poor fit] |  |
| Cc1ccc(C)c(N2CCN(C(=O)CCc3nc(-c4ccc(Cl)cc4)no3)CC2)c1 |  | inactive: -4% |
| COc1cccc(-c2nc(SCC(=O)Nc3ccc4c(c3)OCCO4)c(-c3ccc(C)cc3)[nH]2)c1 | active: 23.1 µM |  |
| CC(C)(C)c1ccc(C(=O)C[N+]2(C)CCCc3ccccc32)cc1 (stereo unspecified) | active: 1.58 µM |  |
| CCOc1ccc(-c2cc(C(=O)NCCc3ccc(OC)c(OC)c3)c3c(-c4ccc(F)cc4)[nH]nc3n2)cc1 | inconclusive [inhibitor, single point] |  |
| Cc1nnc(NC(=O)C(C)Sc2nnc(CCNC(=O)c3ccccc3F)n2C)s1 (stereo unspecified) |  | inactive: -9.26% |
| C#CC[N+]1(CC#Cc2cccc(C)c2)CCCCC1 | active: 2.31 µM |  |
| CCc1ccc(S(=O)(=O)NCc2cn3ccccc3n2)s1 | inconclusive [inhibitor, single point] |  |
| O=c1oc(Nc2ccccc2F)nc2ccccc12 | inconclusive [inhibitor, single point] |  |
| COc1cccc(/C=N/Nc2ccc([N+](=O)[O-])cn2)c1O | active: 2.91 µM |  |
| Cc1ccc(Cn2c(C)c3cnn(CC(=O)NC4CCCC4)c(=O)c3c2C)cc1 | inconclusive [inhibitor, partial curve] |  |
| Cc1ccc(O)c(NC(=S)NC(=O)COc2ccc(Br)cc2)c1 | inconclusive [inhibitor, partial curve] |  |
| Cc1cccc(OCCCn2c(CCNC(=O)C3CCCCC3)nc3ccccc32)c1 | active: 11.6 µM |  |
| COc1ccc(NC(=O)C2Cc3c(-c4cccc(F)c4)ccnc3O2)cn1 (stereo unspecified) | active: 16.4 µM |  |
| CCOC(=O)C1CCCN(C(=O)c2cccs2)CC1 (stereo unspecified) |  | inactive: -5.23% |
| COc1cc(C(=O)CCN2CCC(c3ccccc3)C2)cc(OC)c1OC (stereo unspecified) | active: 5.8 µM |  |
| Cc1ccc(C)c(N2CCN(c3nc4ccc(C(=O)c5ccccc5)cc4n4cnnc34)CC2)c1 | inconclusive [inhibitor, partial curve, poor fit] |  |
| CCOC(=O)c1cnc2c(C)cccc2c1Nc1ccc(OC(C)C)cc1 | active: 23.1 µM |  |
| O=C(Nc1c2c(nc3ccccc13)CCCC2)c1ccccc1Br | inconclusive [inhibitor, single point] |  |
| COc1ccccc1NC(=O)C1(c2ccccc2)CCCC1 | inconclusive [inhibitor, single point] |  |
| O=C(Nc1cc(S(=O)(=O)N2CCOCC2)ccc1Cl)c1cc2ccccc2o1 | inconclusive [inhibitor, single point] |  |

| SMILES | Potency | activity change, negative = growth inhibition |
| --- | --- | --- |
| CCOc1cc(/C=C2\N=C(SCC)SC2=O)cc([N+](=O)[O-])c1OC(C)=O | inconclusive [inhibitor, single point] |  |
| O=C(NCCc1ccc(Cl)cc1)c1ccc(CSCc2cccc(Cl)c2)o1 | inconclusive [inhibitor, single point] |  |
| COc1ccc(Br)cc1CNC(=O)CCc1nc(-c2ccc(C)cc2)no1 | inconclusive [inhibitor, partial curve] |  |
| O=C(CSc1nc(-c2ccccc2)nc2ccccc12)Nc1nccs1 |  | inactive: -9.56% |
| CCOC(=O)c1ccc(NC(=O)NCc2ccc(OC)cc2)cc1 | inconclusive [inhibitor, single point] |  |
| Cc1ccc([N+](=O)[O-])c(OCc2ncc(Cl)n2C)c1 | inconclusive [inhibitor, partial curve, poor fit] |  |
| Nc1cccc(S(=O)(=O)Nc2ccc(SC(F)F)cc2)c1 |  | inconclusive: -37.1% [inhibitor] |
| Cc1cc(-c2ccccc2)nc(N2CCN(c3ccccn3)CC2)n1 | inconclusive [inhibitor, single point] |  |
| Cc1cc(C)c(OCCN2CC(C)OC(C)C2)c(Br)c1 (stereo unspecified) | active: 16.4 µM |  |
| Cn1cc(S(=O)(=O)c2cccc(Cl)c2)c(=O)c2cc(F)c(N3CCCCC3)cc21 | inconclusive [inhibitor, single point] |  |
| C/C(=N\NC(=O)Cn1nc(C)c(Br)c1C)c1cccs1 | inconclusive [inhibitor, single point] |  |
| O=C(NCCN1CCCC1)c1ccc(Br)cc1 |  | inactive: -12.2% |
| Cc1ccc(OCCCCNC2CCCCC2)c(C)c1 | active: 11.6 µM |  |
| Cc1cccc2nc(-c3ccccc3)nc(N[C@@H](CO)c3ccccc3)c12 | inconclusive [inhibitor, partial curve, poor fit] |  |
| Cn1c(SCC(=O)Nc2ccccc2Cl)nnc1C1CC1 |  | inconclusive: -20.6% [inhibitor] |
| CCN(CC)c1ncnc2ccc(Br)cc12 | inconclusive [inhibitor, partial curve] |  |
| COc1cc(OC)cc(-c2nnc(NC(=O)CCS(=O)(=O)c3ccc(F)cc3)o2)c1 | inconclusive [inhibitor, single point] |  |
| COc1ccccc1/C=C1/C(=O)ON=C1C | inconclusive [inhibitor, single point] |  |
| CCCCn1c(N)c(N(CC(C)C)C(=O)c2ccc(S(=O)(=O)N(CC)c3ccccc3)cc2)c(=O)[nH]c1=O | inconclusive [inhibitor, single point] |  |
| Cc1[nH]c2ccccc2c1C(=O)C(=O)NCc1nnnn1-c1cccc(F)c1 | inconclusive [inhibitor, single point] |  |
| CC(C)[C@@H](NC(=O)OC(C)(C)C)C(=O)NCC1CCC(C(=O)N[C@@H](Cc2ccccc2)C(=O)O)CC1 (stereo partly specified) |  | inactive: -10.5% |
| Cc1cc(C)cc(-n2nnc3ccccc3c2=O)c1 | inconclusive [inhibitor, single point] |  |
| COc1ccc2c(c1)[nH]c1c(=O)n(/N=C/c3ccc(OC)c(CN4CCCC4)c3)cnc12 | inconclusive [inhibitor, single point] |  |
| C=CCNC(=O)Nc1ccc2nc(C)sc2c1 | inconclusive [inhibitor, partial curve, poor fit] |  |

| SMILES | Potency | activity change, negative = growth inhibition |
| --- | --- | --- |
| Cc1c(NS(=O)(=O)c2cc(C(=O)NCc3ccco3)cc(Cl)c2Cl)c(=O)n(-c2ccccc2)n1C | inconclusive [inhibitor, partial curve, poor fit] |  |
| Cc1cc(C)cc(OCC(=O)N2CCC(c3nc4ccccc4s3)CC2)c1 | inconclusive [inhibitor, single point] |  |
| CCCCOC(=O)Nc1nnc(CC(=O)NCc2ccccc2)s1 |  | inactive: -11.9% |
| Cc1cccc(NC(=O)CS(=O)(=O)c2c[nH]c3ccccc23)c1C |  | inactive: -20.9% |
| Cc1ccnc2nc(C(=O)Nc3cc(Cl)ccc3N3CCOCC3)nn12 | inconclusive [inhibitor, partial curve] |  |
| c1ccc(CN2CCN(C3CCCSc4ccccc43)CC2)cc1 (stereo unspecified) | active: 23.1 µM |  |
| Cc1cc(Cl)c(O)c(-n2nc3ccccc3n2)c1 | inconclusive [inhibitor, partial curve, poor fit] |  |
| c1ccc(CN2CCN(CCOCCOc3cccc4ccccc34)CC2)cc1 | inconclusive [inhibitor, single point] |  |
| CC(/C=C1\SC(=S)N(NC(=O)c2ccc(O)cc2)C1=O)=C\c1ccccc1 |  | inactive: 4.09% |
| Cc1cc(Br)ccc1OCC(=O)NNC(=O)c1ccc(NC(=O)C2CC2)cc1 | inconclusive [inhibitor, partial curve] |  |
| Cc1ccc(-c2cc(-c3ccccc3)no2)c(O)c1 |  | inactive: -20.5% |
| COc1ccc2cc(CN(CC3CCCO3)S(=O)(=O)c3ccc(C(C)=O)cc3)c(=O)[nH]c2c1 (stereo unspecified) | inconclusive [inhibitor, partial curve] |  |
| CCCN1C(=O)C(Cc2nc3ccccc3c(=O)n2-c2ccc(OC)cc2)c2cc(C)ccc21 (stereo unspecified) | active: 4.11 µM |  |
| Cc1cc(NCc2ccccn2)ccc1Br | inconclusive [inhibitor, single point] |  |
| CC(C)C[C@H](NC(=O)c1nc[nH]c1C(=O)N1CCN(C(=O)OC(C)(C)C)CC1)C(=O)OCc1ccccc1 | active: 16.4 µM |  |
| Cc1cnc(NC(=O)C2COc3ccccc3O2)s1 (stereo unspecified) | inconclusive [inhibitor, partial curve] |  |
| Cc1ccc(CN2CCN(Cc3cnc(N4CCOCC4)s3)CC2CCO)o1 (stereo unspecified) |  | inactive: 19% |
| CC(=O)C1=C(S(=O)(=O)c2ccc(C)cc2)CS(=O)(=O)C1 | active: 4.61 µM |  |
| Cc1ccc2cc(/C=N/NC(=O)[C@H](C)NC(=O)OC(C)(C)C)c(Cl)nc2c1 | inconclusive [inhibitor, single point] |  |
| CCOC(=O)Cc1csc(NC(=O)NC2(C(F)(F)F)Oc3ccccc3O2)n1 |  | inactive: -26.6% |
| CCc1ccc(-c2cc3c(=O)n(CC(=O)NCCCN4CCN(CC)CC4)nc(C)n3n2)cc1 | inconclusive [inhibitor, single point] |  |
| CN(C)c1cccc2c(/C=N/O)ccc(N(C)C)c12 |  | inactive: -19.9% |
| CCCN(C(=O)Nc1cn(CC(C)C)c(=O)c2ccccc12)c1ccc(F)cc1 | active: 18.4 µM |  |
